These results are taken from patent US20260227416A1 (published 2026).

The target of assay [1] is T1, CD20 on SU-DHL4 cells (UniProt P11836).
T1 sequence (looked up): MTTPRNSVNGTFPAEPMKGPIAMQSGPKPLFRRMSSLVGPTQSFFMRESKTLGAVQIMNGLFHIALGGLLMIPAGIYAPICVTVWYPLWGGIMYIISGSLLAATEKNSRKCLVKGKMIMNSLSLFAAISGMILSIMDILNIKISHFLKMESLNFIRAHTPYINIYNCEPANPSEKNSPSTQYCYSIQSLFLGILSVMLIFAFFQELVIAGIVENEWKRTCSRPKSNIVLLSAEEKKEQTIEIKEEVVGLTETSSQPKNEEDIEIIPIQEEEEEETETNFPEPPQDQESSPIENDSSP
Briefly: cell-based or functional assay.

For assay [2], the target named is T1, CD20 on SU-DHL4 cells. Briefly: binding to SU-DHL4 cells with high CD20 copy number, antibody titrated up to 10 µg/mL; method of detection not stated.

B1: Rituximab-Mod (modified Rituximab antibody with added PrDs) (antibody, part only; not given: light chain, part only)
heavy: VQLQQPGAELVKPGASVKMSCKASGYTFTSYNMHWVKQTPGRGLEWIGAIYPGNGDTSYNQKFKGKATLTADKSSSTAYMQLSSLTSEDSAVYYCARSTYYGGDWYFNVWGAGTTVTVSAASTKGPSVFPLAPSSKSTSGGTAALGCLVKDYFPEPVTVSWNSGALTSGVHTFPAVLQSSGLYSLSSVVTVPSSSLGTQTYICNVNHKPQNQNQNQNQNQNQNSNTKVDKKA[human IgG1 Fc not spelt out]QNQNQNQNQNQNQN
As to B1, in the assay with CD20 on SU-DHL4 cells [1], the EC50 values of target cell killing (ADCC, SU-DHL4 target cells) is 0.1 ng/mL. Besides, in the assay with CD20 on SU-DHL4 cells [2], the maximal binding intensity, fold over rituximab (times (relative to rituximab)) is > 2.
